Reference: patent US11420968B2 (priority 2018, dated 2022)
Where two headings read alike, the source gives them in different places.

Columns and labels:
[1] = test system: Molt-4 cells; test: cells; conditions: Homo sapiens
[2] = test system: RS4;11 cells; test: cells; conditions: Homo sapiens
[3] = MOLT-4, read-out: Cellular activity (IC50, nM) Molt-4
[4] = RS4-11, 48 h, read-out: Cellular activity (IC50, nM) RS4, 11
[5] = RS4-11, 48 h, read-out: Cellular activity (IC50, nM) RS4;11

Structure (SMILES) | IC50 [1, 3] [nM] | IC50 [2, 4] [nM] | IC50 [2, 5] [nM] | IC50 ([1]; MOLT-4, read-out: Celluclar activity (IC50, nM) Molt-4) [nM] | IC50 ([2]; RS4-11, read-out: Celluclar activity (IC50, nM) RS 4, 11) [nM]
CN1CC=C(c2ccccc2C2CCCN2C2CC=C(c3ccc(C(=O)NS(=O)(=O)c4ccc(NCC5CCOCC5)c([N+](=O)[O-])c4)c(Oc4cnc5[nH]ccc5c4)c3)CC2)CC1 (stereo not shown) [Example C175, 3-((1H-pyrrolo[2,3-b]pyridin-5-yl)oxy)-4′-(2-(2-(1-methyl-1,2,3,6-tetrahydropyridin-4-yl)phenyl)pyrrolidin-1-yl)-N-((3-nitro-4-(((tetrahydro-2H-pyran-4-yl)methyl)amino)phenyl)sulfonyl)-2′,3′,4′,5′-tetrahydro-[1,1′-biphenyl]-4-carboxamide] | > 10000 | 476 |  |  | 
O=C(NS(=O)(=O)c1ccc(NCC2CCOCC2)c([N+](=O)[O-])c1)c1ccc(-c2ccc(N3CCC[C@@H]3c3ccccc3C3=CCN(C4CC4)CC3)cc2)cc1Oc1cnc2[nH]ccc2c1 (stereo in doubt) [Example A107, 3-((1H-pyrrolo[2,3-b]pyridin-5-yl)oxy)-4′-(2-(2-(1-cyclopropyl-1,2,3,6-tetrahydropyridin-4-yl)phenyl)pyrrolidin-1-yl)-N-((3-nitro-4-(((tetrahydro-2H-pyran-4-yl)methyl)amino)phenyl)sulfonyl)-[1,1′-biphenyl]-4-carboxamide] | 3180 |  | 18 |  | 
CCc1ccccc1[C@@H]1CCCN1C1CC=C(c2ccc(C(=O)NS(=O)(=O)c3ccc(NCC4(F)CCOCC4)c([N+](=O)[O-])c3)c(Oc3cnc4[nH]ccc4c3)c2)CC1 (stereo partly drawn) [Example G90-S, 3-((1H-pyrrolo[2,3-b]pyridin-5-yl)oxy)-4′-((S)-2-(2-ethylphenyl)pyrrolidin-1-yl)-N-((4-(((4-fluorotetrahydro-2H-pyran-4-yl)methyl)amino)-3-nitrophenyl)sulfonyl)-2′,3′,4′,5′-tetrahydro-[1,1′-biphenyl]-4-carboxamide] | 6780 | 11 |  |  | 
CC(C)c1ccccc1[C@@H]1CCCN1C1CC2(C1)CN(c1ccc(C(=O)NS(=O)(=O)c3ccc(NC[C@H]4COCCO4)c([N+](=O)[O-])c3)c(Oc3cnc4[nH]ccc4c3)c1)C2 [Example F110, N-((4-((((S) 1,4-dioxan-2-yl)methyl)amino)-3-nitrophenyl)sulfonyl)-2-((1H-pyrrolo[2,3-b]pyridin-5-yl)oxy)-4(6-((S)-2-(2-isopropylphenyl)pyrrolidin-1-yl)-2-azaspiro[3.3]heptan-2-yl)benzamide] | 2560 |  | 2.7 |  | 
CC(C)Oc1ccccc1C1CCCN1C1CC=C(c2ccc(C(=O)NS(=O)(=O)c3ccc(NCC4CCOCC4)c([N+](=O)[O-])c3)c(Oc3cnc4[nH]ccc4c3)c2)CC1 (stereo not shown) [Example C41, 3-((1H-pyrrolo[2,3-b]pyridin-5-yl)oxy)-4′-(2-(2-isopropoxyphenyl)pyrrolidin-1-yl)-N-((3-nitro-4-(((tetrahydro-2H-pyran-4-yl)methyl)amino)phenyl)sulfonyl)-2′,3′,4′,5′-tetrahydro-[1,1′-biphenyl]-4-carboxamide] | > 10000 | 122 |  |  | 
O=C(NS(=O)(=O)c1ccc(NCC2CCOCC2)c([N+](=O)[O-])c1)c1ccc(C2=CCC(N3CCCC3c3ccc(F)cc3C3CC3)CC2)cc1Oc1cnc2[nH]ccc2c1 (stereo not shown) [Example C53, 3-((1H-pyrrolo[2,3-b]pyridin-5-yl)oxy)-4′-(2-(2-cyclopropyl-4-fluorophenyl)pyrrolidin-1-yl)-N-((3-nitro-4-(((tetrahydro-2H-pyran-4-yl)methyl)amino)phenyl)sulfonyl)-2′,3′,4′,5′-tetrahydro-[1,1′-biphenyl]-4-carboxamide] | 4220 | 180 |  |  | 
O=C(NS(=O)(=O)c1ccc(NCC2CN(C3COC3)CCO2)c([N+](=O)[O-])c1)c1ccc(C2=CCC(N3CCCC3c3ccccc3C3CC3)CC2)cc1Oc1cnc2[nH]ccc2c1 (stereo not shown) [Example G11, 3-((1H-pyrrolo[2,3-b]pyridin-5-yl)oxy)-4′-(2-(2-cyclopropylphenyl)pyrrolidin-1-yl)-N-((3-nitro-4-(((4-(oxetan-3-yl)morpholin-2-yl)methyl)amino)phenyl)sulfonyl)-2′,3′,4′,5′-tetrahydro-[1,1′-biphenyl]-4-carboxamide] | > 10000 | 40 |  |  | 
COCc1ccccc1C1CCCN1c1ccc(-c2ccc(C(=O)NS(=O)(=O)c3ccc(NCC4CCOCC4)c([N+](=O)[O-])c3)c(Oc3cnc4[nH]ccc4c3)c2)cc1 (stereo not shown) [Example A128, 3-((1H-pyrrolo[2,3-b]pyridin-5-yl)oxy)-4′-(2-(2-(methoxymethyl)phenyl)pyrrolidin-1-yl)-N-((3-nitro-4-(((tetrahydro-2H-pyran-4-yl)methyl)amino)phenyl)sulfonyl)-[1,1′-biphenyl]-4-carboxamide] | > 10000 |  | 115 |  | 
CC(C)c1ccccc1C1CCCN1C1CCC(c2ccc(C(=O)NS(=O)(=O)c3ccc(NCC4CCOCC4)c([N+](=O)[O-])c3)c(Oc3cnc4[nH]ccc4c3)c2)CC1 (stereo not drawn) [Example D5, trans- or cis-2-((1H-pyrrolo[2,3-b]pyridin-5-yl)oxy)-4-(4-(2-(2-isopropylphenyl)pyrrolidin-1-yl)cyclohexyl)-N-((3-nitro-4-(((tetrahydro-2H-pyran-4-yl)methyl)amino)phenyl)sulfonyl)benzamide] | 7440 | 43 |  |  | 
CN1CC=C(c2ccccc2[C@H]2CCCN2c2ccc(-c3ccc(C(=O)NS(=O)(=O)c4ccc(NCC5(F)CCOCC5)c([N+](=O)[O-])c4)c(Oc4cnc5[nH]ccc5c4)c3)cc2)CC1 [Example G119, (R)-3-((1H-pyrrolo[2,3-b]pyridin-5-yl)oxy)-N-((4-(((4-fluorotetrahydro-2H-pyran-4-yl)methyl)amino)-3-nitrophenyl)sulfonyl)-4′-(2-(2-(1-methyl-1,2,3,6-tetrahydropyridin-4-yl)phenyl)pyrrolidin-1-yl)-[1,1′-biphenyl]-4-carboxamide] | 7850 |  | 3.7 |  | 
C=C(C)c1ccccc1[C@@H]1CCCN1C1CC2(CCN(c3ccc(C(=O)NS(=O)(=O)c4ccc(NC[C@H]5CC[C@](C)(O)CC5)c([N+](=O)[O-])c4)c(Oc4cnc5[nH]ccc5c4)c3)CC2)C1 [Example F104, 2-((1H-pyrrolo[2,3-b]pyridin-5-yl)oxy)-N-((4-((((1r,4r)-4-hydroxy-4-methylcyclohexyl)methyl)amino)-3-nitrophenyl)sulfonyl)-4-(2-((S)-2-(2-(prop-1-en-2-yl)phenyl)pyrrolidin-1-yl)-7-azaspiro[3.5]nonan-7-yl)benzamide] | 1490 |  | 0.4 | 1490 | 0.4
CC1=CC[C@@H](CNc2ccc(S(=O)(=O)NC(=O)c3ccc(N4CCC5(CC4)CC(N4CCC[C@H]4c4ccccc4C(C)C)C5)cc3Oc3cnc4[nH]ccc4c3)cc2[N+](=O)[O-])CC1 [Example F103, 2-((1H-pyrrolo[2,3-b]pyridin-5-yl)oxy)-4-(2-((S)-2-(2-isopropylphenyl)pyrrolidin-1-yl)-7-azaspiro[3.5]nonan-7-yl)-N-((4-((((S)-4-methylcyclohex-3-en-1-yl)methyl)amino)-3-nitrophenyl)sulfonyl)benzamide] | > 10000 |  | 8.9 |  | 
Cc1ccccc1C1CCCN1C1CCC(c2ccc(C(=O)NS(=O)(=O)c3ccc(NCC4CCOCC4)c([N+](=O)[O-])c3)c(Oc3cnc4[nH]ccc4c3)c2)CC1 (stereo not drawn) [Example D96, trans- or cis-2-((1H-pyrrolo[2,3-b]pyridin-5-yl)oxy)-N-((3-nitro-4-(((tetrahydro-2H-pyran-4-yl)methyl)amino)phenyl)sulfonyl)-4-(4-(2-(o-tolyl)pyrrolidin-1-yl)cyclohexyl)benzamide] | > 10000 | 43 |  |  | 
